Reference: article PMC4336329 (PLoS ONE, 2015)
The whole screen tested about 310,000 compounds, of which about 14,000 (4.5%) showed an effect of 50% or more. The effect is printed as a negative number. This is one part of the list.

Biological target: human ether-à-go-go-related gene (hERG) potassium channel (human, UniProt Q12809)
Experiment: primary screen, population patch clamp on CHO cells stably expressing hERG
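Note: peak tail current of the secondary pulse compared with the same well before compound.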

Chain of human ether-à-go-go-related gene (hERG) potassium channel (Q12809 whole entry, looked up): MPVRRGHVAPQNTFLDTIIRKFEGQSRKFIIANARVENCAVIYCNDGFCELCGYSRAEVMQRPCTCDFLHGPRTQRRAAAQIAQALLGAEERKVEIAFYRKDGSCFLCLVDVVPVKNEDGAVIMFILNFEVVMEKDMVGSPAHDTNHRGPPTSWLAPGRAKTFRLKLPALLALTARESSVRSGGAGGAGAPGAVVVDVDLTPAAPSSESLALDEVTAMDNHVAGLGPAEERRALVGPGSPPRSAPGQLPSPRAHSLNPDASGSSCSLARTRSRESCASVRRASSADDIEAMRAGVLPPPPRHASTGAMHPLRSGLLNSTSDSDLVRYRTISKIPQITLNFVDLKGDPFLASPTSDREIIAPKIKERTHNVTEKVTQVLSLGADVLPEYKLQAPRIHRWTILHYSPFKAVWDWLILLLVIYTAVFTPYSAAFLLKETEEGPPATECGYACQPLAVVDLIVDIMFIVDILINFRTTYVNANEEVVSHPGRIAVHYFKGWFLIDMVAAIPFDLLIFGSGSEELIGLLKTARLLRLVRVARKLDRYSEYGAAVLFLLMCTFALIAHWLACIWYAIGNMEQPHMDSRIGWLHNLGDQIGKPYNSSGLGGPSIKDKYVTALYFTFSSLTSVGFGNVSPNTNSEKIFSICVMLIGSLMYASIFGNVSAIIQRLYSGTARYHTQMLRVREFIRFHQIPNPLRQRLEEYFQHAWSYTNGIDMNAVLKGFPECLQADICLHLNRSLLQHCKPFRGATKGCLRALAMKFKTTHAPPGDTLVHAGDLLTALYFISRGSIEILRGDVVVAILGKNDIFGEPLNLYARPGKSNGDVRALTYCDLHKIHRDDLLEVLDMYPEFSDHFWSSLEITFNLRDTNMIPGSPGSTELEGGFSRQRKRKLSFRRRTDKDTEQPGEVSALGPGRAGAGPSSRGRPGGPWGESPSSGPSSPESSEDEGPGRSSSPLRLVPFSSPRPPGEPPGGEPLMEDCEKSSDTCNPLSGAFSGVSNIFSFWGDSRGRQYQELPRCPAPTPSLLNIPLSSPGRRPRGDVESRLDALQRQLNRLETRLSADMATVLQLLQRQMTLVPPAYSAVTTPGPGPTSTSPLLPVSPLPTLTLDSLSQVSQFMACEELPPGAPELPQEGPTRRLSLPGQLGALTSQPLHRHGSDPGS

SMILES	hERG current change (%, negative = inhibition) at 10uM
CC(NS(=O)(=O)c1ccc(CCC(=O)NCc2ccco2)cc1)c1ccccc1 (centres unmarked)	-9.5%
CC1CCN(C(=S)c2cccc([N+](=O)[O-])c2)CC1	2.16%
CCn1c(SCC(=O)N2CCCC2)nc2c(c1=O)SCC2	8.67%
Cc1nc(C)c(CCNC(=O)c2cccc(Cl)c2)s1	-4.98%
Cl.Oc1ccccc1/C=N/NC1=NCCCCC1	-15.9%
CC1CCCN(CCCCOc2cccc(Br)c2)C1.O=C(O)C(=O)O (centres unmarked)	-69%
CS(=O)(=O)c1ccccc1C(=O)N1CCN(Cc2ccccc2)CC1	23.7%
COc1ccccc1N=C1SCCCN1C.I	-9.75%
CC(=O)c1cccc(NC(=O)N2CCC(NC(=O)C34CC5CC(CC(C5)C3)C4)CC2)c1	-1.89%
O=C(CCCn1c(=O)c2cccn2c2cccnc21)N1CCN(c2ccccc2F)CC1	-10.7%
CC(=O)Nc1ccc(S(=O)(=O)NC(CC(=O)NC2CCCCC2C)C(C)C)cc1 (centres unmarked)	14.6%
CCOC(=O)CNC(=O)CNC(=O)c1ccc(OCC(C)C)cc1	4.44%
CCc1ccc(C=NC23CN4CN(CN(C4)C2)C3)s1	6.67%
CCOc1ccc(-n2c(N)c(C(=O)NCc3ccco3)sc2=S)cc1	-9.96%
CCOC(=O)C1(Cc2cccc(F)c2)CCN(C(=O)C2CCCO2)CC1 (centres unmarked)	10.2%
CSc1nsc(SC)c1NC(=O)OC1CCCCC1	-15.1%
CCOC(=O)c1ccc(C(=O)OCC)c(NC(=S)Nc2ccc([N+](=O)[O-])cc2OC)c1	-3.54%
Cc1cccc(C)c1NC(=S)N(c1ccccc1)C(C)C	4.92%
COC(=O)[C@@]12CCCN1[C@H](c1ccc(SC3CCCCC3)cc1)[C@H]1C(=O)N(C)C(=O)[C@H]12.O=C(O)C(F)(F)F	-28.7%
CC(=O)c1cnc2cc(C)nn2c1C	1.66%
CCN(C(=O)CN1CCN(Cc2ccccc2)CC1)c1c(N)n(Cc2ccccc2)c(=O)[nH]c1=O	37.6%
CC(=O)Nc1ccc(NC(=O)Nc2ccc(C)cc2C)cc1	18.9%
Cc1cccc(N2C(=O)CN(Cc3sccc3C)C2=S)c1	-7.83%
O=C(CCCC(=O)OCC(Cl)=C(Cl)Cl)Nc1ccc(F)cc1	7.87%

SMILES	hERG current change (%, negative = inhibition) at 10uM
COc1ccc(NC(=O)CN2C(=O)NC(C)(c3ccccc3)C2=O)cc1Cl (centres unmarked)	-13.2%
O=C(Nc1cccc(F)c1)c1ccc(-c2ccccc2Cl)o1	-17.8%
Cn1cccc1Cc1nnc(SCC(=O)NCCc2ccccc2)n1C	16.2%
Cc1nonc1C1CCCN1Cc1nc(-c2ccc(F)cc2F)oc1C (centres unmarked)	19.8%
COC(=O)[C@@H](c1ccccc1)N(C)S(=O)(=O)c1cccc(S(=O)(=O)N(C)[C@@H](C(=O)OC)c2ccccc2)c1	1.05%
Cc1cc(-c2n[nH]c(=S)n2/N=C/c2cccc([N+](=O)[O-])c2)n[nH]1	13.6%
Cn1c(=O)[nH]c(=O)c2c1nc(CN1CCN(c3cccc(Cl)c3)CC1)n2Cc1ccccc1Cl	-2.1%
CCN(CC)c1ccc(CNc2ccc3c(c2)ncn3CC)cc1	-3.33%
O=C(Nc1c(-c2ccccc2)nc2ccccn12)c1cccs1	-0.848%
O=C(CSC1=NCCS1)Nc1nc(-c2ccccc2)cs1	-4.96%
COc1ccc(Cl)cc1S(=O)(=O)N(C)CC(=O)N1CCCC1	-0.48%
Cc1onc(-c2ccccc2)c1C(=O)OCC(=O)Nc1ccc(Cl)cc1	6.51%
O=C(NCc1ccco1)c1cc(Cl)nc(Cl)c1	8.26%
CC(=O)c1ccccc1N(C(=O)Cn1nnc2ccccc21)C(C(=O)NCC1CCCO1)c1ccc(N2CCOCC2)cc1 (centres unmarked)	-2.45%
O=C(COc1ccccc1)NCC(c1ccco1)N1CCN(c2ccccc2)CC1 (centres unmarked)	-26.6%
O=C(CC1N=C2c3ccccc3N=C(SCc3ccc(Cl)cc3)N2C1=O)NCc1ccco1 (centres unmarked)	-75.3%
Cl.NC(Cc1ccc(O)cc1)c1cn([C@@H](CCC(=O)O)C(=O)N2CCNCC2)nn1 (some centres unmarked)	11.5%
CC(=O)Nc1ccc(NCN2C(=O)C3C4CCC(C4)C3C2=O)cc1 (centres unmarked)	10.8%
O=C(CN1C(=O)NC2(CCCC2)C1=O)Nc1ccc(F)cc1	8.79%
CCC(C)(C)C1CCC2(CC1)NC(=O)N(CC(=O)NCCCc1ccccc1)C2=O (centres unmarked)	-14.1%
O=C(c1cc2nc(-c3ccc(Cl)cc3)cc(C(F)(F)F)n2n1)N1CCOCC1	-5.58%
COC(=O)c1ccc(COC(=O)CNC(=O)c2cccs2)cc1	10.1%
Cc1ccc(-n2c(C)cc(-c3csc(N)n3)c2C)cc1.Cl	6.5%
O=C(c1ccccc1)N1N=C(c2ccccc2)CC1(O)C(F)(F)F (centres unmarked)	-14.3%

SMILES	hERG current change (%, negative = inhibition) at 10uM
O=C(NCCN1CCN(S(=O)(=O)c2ccc([N+](=O)[O-])cc2)CC1)C(=O)Nc1ccccc1	13.5%
COc1ccc(Cl)cc1NC(=S)NCCc1c[nH]c2ccccc12	-12.5%
COc1ccc2oc(=O)c(C(=O)n3ccc(C)n3)cc2c1	-9.2%
CCC(OC(=O)CN1C(=O)c2ccccc2C1=O)C(=O)NC1CCCC1 (centres unmarked)	-0.744%
COc1ccc(C(=O)OC/C(O)=C(\C#N)c2nc3ccccc3[nH]2)cc1S(=O)(=O)N1CCOCC1	-1.23%
CCOC(=O)C1=C(CN2CCC(C)CC2)NC(=O)NC1c1ccc(Cl)cc1 (centres unmarked)	-37.6%
COc1ccc(C(=O)N2CCC(n3nccc3NC(=O)C3CCOC3)CC2)cc1 (centres unmarked)	7.99%
O=C(NCc1cccnc1)c1ccc([N+](=O)[O-])o1	10.3%
O=C1NC(c2ccccc2)C(C(=O)c2cccs2)C(O)(C(F)(F)F)N1 (centres unmarked)	-7.57%
Clc1ccc(-c2csc(N3CCC(c4ccccc4)C3)n2)cc1 (centres unmarked)	12.5%
Cc1ccccc1OCC(=O)OCC(=O)Nc1ccc(Cl)cn1	11.2%
O=C(Nc1cccc(-c2nc3cccnc3s2)c1)c1ccc(Cl)nc1	10.4%
Cc1ccccc1OCC(=O)OCC(=O)N1CCCc2ccccc21	4.34%
Cn1c(=O)c2c(nc3n2CC(O)CN3c2ccc(O)cc2)n(C)c1=O (centres unmarked)	20%
Cc1cc(C)n(-c2ccc(Cl)c(C(=O)NCc3ccccc3)n2)n1	18.6%
Cn1c(Cn2c(=O)sc3ccccc32)nnc1SCC(N)=O	-31.1%
COc1ccc(Cl)cc1N(CC(=O)NC1CC2CCC1C2)S(=O)(=O)c1ccccc1 (centres unmarked)	-31.5%
CC(C)CCN1CCN(Cc2cccc(C(F)(F)F)c2)CC1CCO (centres unmarked)	-55.1%
COc1cc(C(=O)OCCCN2CCCN(CCCOC(=O)c3cc(OC)c(OC)c(OC)c3)CC2)cc(OC)c1OC.Cl	-67.8%
COc1ccc(NC2=CC(=S)NC(C)(C)C2)cc1	16.4%
O=C(CSc1nnc(-c2ccc(Cl)cc2)o1)NNC(=O)c1ccncc1	5.53%
COC(=O)c1ccc2c(c1O)C(=O)c1ccccc1C2=O	-12.8%
O=C(Cc1ccccc1)NCC(=O)Nc1ccc(OC(F)(F)F)cc1	12.5%
